B1: chr5:145543945:145543946:-_ENSG00000133706_ENST00000545646|hu_hu|hu_hu_hu_mus_True|8_68 (ssRNA)
RNA: GGGAGUUCUACAGUCCGACGAUCCUGAACGGCCAGUGGUGGGAAAUAAUCAAGCCAGUGCUCUGCUUCAGAAAAUUUCACUAUGUCGUCAUCAGAGAGCCCAAGGGAUUUCAUAAUGUCCCACUGGUAUUUAGAAGAUCCUGCCAACAGAGGAUUGAGCAUCA
B2: chr13:113737515:113737516:+_ENSMUSG00000042426_ENSMUST00000038574|mus_mus|motif|central (ssRNA)
RNA: GGGAGUUCUACAGUCCGACGAUCAGAAUUCCUUCCUCCAGGGCCACUCUCACAGCCCAGCUCCUCGCACACCCUGGUGGCGGAGCUCACCGCCGAGAUUCUUCGGGGCUGGGUGCAGACUAUGUUACACUUCCUGGCUCCACACAACAGAGGAUUGAGCAUCA
B3: chr3:112251601:112251602:-_ENSG00000144848_ENST00000283290|hu_mus|motif|central (ssRNA)
RNA: GGGAGUUCUACAGUCCGACGAUCAGGAUAGACUCUAUAGCCUCUCCACUACAUUGUGAAGUGUCUUGUGUAGUCAUAUUCGGUUGUUGGAAUGACAGCUUGAACAAAUUUCAAAAAAAUUAAAAGAUACAUAUGAACACCAAGCAACAGAGGAUUGAGCAUCA
B4: chrX:71549400:71549401:+_ENSMUSG00000019087_ENSMUST00000019231|mus_hu|mus_mus_mus_hu_False|88_108 (ssRNA)
RNA: GGGAGUUCUACAGUCCGACGAUCGCAAGGAAGAGGAGGAAGCUCUUCAUCCACUGUCGCUGCAGGGUGGGAAAGCAACAACACGGACACCGUCCCACCCUCAACCCCCCCACUGGCACAGGGUCACACAAUCUGGGUCAAAGACAACAGAGGAUUGAGCAUCA
B5: 46099167_46104026_2383_CDS_ENSG00000136152_ENST00000349995|human|control|control (ssRNA)
RNA: GGGAGUUCUACAGUCCGACGAUCGGUAUCUUUAUUGGAUAGGUACAAGGACAUACUUCUCAAUGUCACAGGCAGCUUUGUUUUUAUUGUCUUAUAUGCAGUUGCCGCAAGGUCAUUGACCUUUGCUGGUUGUGCCCAAGGCUGCAACAGAGGAUUGAGCAUCA
B6: chr7:65705475:65705476:+_ENSG00000169902_ENST00000304842|hu_hu|motif|central (ssRNA)
RNA: GGGAGUUCUACAGUCCGACGAUCUCUAUCCGGUGAUGGCAUUCCAUGGCAUGCUGGCCCAGGUAAAACACAGUCACAGAACGGAUCACCAGACAUGCCAAUAGUAAGUUCUGCUUCAGCUUUCCAACCAUCUUGAUGUGGUUACAACAGAGGAUUGAGCAUCA
B7: chr10:5838811:5838812:-_ENSG00000057608_ENST00000380191|hu_hu|FALSE|FALSE (ssRNA)
RNA: GGGAGUUCUACAGUCCGACGAUCAACAUUCCAGUCUCUUCCUCUCCCCAUUGACUCGGGUGGUGAUCCUGGUAUUUUAAAUCUUUUGUAUAAAUCUUCCAAUGGUGUUAUAGAUGCACUCUCUCCUCCGUAGUAAGGGUUUCGCAACAGAGGAUUGAGCAUCA
B8: chr11:77336104:77336105:-_ENSG00000074201_ENST00000525064|hu_mus|hu_hu_hu_mus_False|28_28 (ssRNA)
RNA: GGGAGUUCUACAGUCCGACGAUCCUCACACAUUGCUGUGAACAUCGCCUCCAAUGCUGACUUAUCACUGGGCACAAAUCGAAAUUCAGAAAUGGGUUCAACAUCAUCAUCACUGUCCUCAUCUUCAUCAGAGAGAGGUUCUUUCAACAGAGGAUUGAGCAUCA
B9: chr20:47733735:47733736:-_ENSG00000124214_ENST00000360426|hu_mus|FALSE|FALSE (ssRNA)
RNA: GGGAGUUCUACAGUCCGACGAUCCACAUCCUUGCCGAUGCCAUGACUGACGAGAGGCGGCUGUGAGGAGCAGUUGAUGAGAGAUACACACUCGUUCUUGUUGUUCUUGGGAAAAUCUUUGUAUUCAACCUGGAAUCCCUGGGCCAACAGAGGAUUGAGCAUCA
B10: 126051128_126052083_3317_CDS_ENSG00000164961_ENST00000318410|human|control|control (ssRNA)
RNA: GGGAGUUCUACAGUCCGACGAUCAAGUGUGUUAUCUUCUUUGGGGUAAGGAAGUGAAGGGUCCUGAUAGUGGGCUUCAAUGUCUGCUAGGAGAGCCUUAUUGAGAUUCUCCAGAGCAGCUGCCAGAUGUUUAGAAUCAAACCGCAACAGAGGAUUGAGCAUCA
B11: chr10:98487791:98487792:+_ENSMUSG00000019943_ENSMUST00000020107|mus_hu|motif|central (ssRNA)
RNA: GGGAGUUCUACAGUCCGACGAUCUCAUGCAGCACAUUAAUGGCAAAACCAAGACUAGAAACCAGGUCUUGACUCCGGGUCGGAUAUGCUUUCCAGCAUAUCAUGCUACCUCUUUUUUACAGUAUGAUUCACUAUAAAUACCUGCAACAGAGGAUUGAGCAUCA
B12: chr17:79190952:79190953:-_ENSMUSG00000039414_ENSMUST00000097281|mus_mus|motif|central (ssRNA)
RNA: GGGAGUUCUACAGUCCGACGAUCGCUAUGAUCAGUUGCAGCCAUGAAUGCCAUUCGAAUCAGGUCAGAGAGAUGCAAUACGGGGAGGUCAUUUUUUGGGUUUCGUAGUUUAGCAGACCGUGCCAAGGCAAGGUCGAAGUGAGCCAACAGAGGAUUGAGCAUCA
B13: chr17:64801638:64801639:+_ENSG00000154229_ENST00000413366|hu_mus|hu_hu_hu_mus_False|38_68 (ssRNA)
RNA: GGGAGUUCUACAGUCCGACGAUCUAUAUAUAUAUAUACAUAUGUACACAUAUAUAGUAAAACCCUAAUCUAUCACGUAAAGUAGCCAUUCAUUUUUGAAAUUUUAUCUACAUUAAAAAAUUAAUAUAUCUGAUAGAGUGCCAGCAACAGAGGAUUGAGCAUCA
B14: chr12:56598494:56598495:-_ENSG00000181852_ENST00000345093|hu_mus|FALSE|FALSE (ssRNA)
RNA: GGGAGUUCUACAGUCCGACGAUCCAGAGUGAGCUUGGGCAAGGCAGGCAGGCACAAAGAGGAACAAGAAACCCAGUAACCCGACUGAGUAUAGCAGCCUUUUUCAAACUCCUGAGCACAAUGUCCUGGAGCUGGAACACCCAACAACAGAGGAUUGAGCAUCA

Some of the results follow.

The assay concerns the target T1, UNK ZnF1-3 (human, UniProt Q9C0B0 31-174).
T1 sequence: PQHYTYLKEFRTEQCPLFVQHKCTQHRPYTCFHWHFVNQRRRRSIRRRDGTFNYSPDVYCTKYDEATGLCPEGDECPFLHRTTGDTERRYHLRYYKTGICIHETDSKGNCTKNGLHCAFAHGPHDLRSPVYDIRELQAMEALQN
The experiment in a line: nsRBNS (natural sequence RNA bind-n-seq); RBNS binding buffer (assumed for nsRBNS): 25 mM Tris pH 7.5, 150 mM KCl, 3 mM MgCl2, 0.01% Triton X-100, 500 ug/ml BSA, 20 U/ml SUPERase-In, 4 C; UNK is unkempt and MSI1 is Musashi-1; names of the RNAs are library labels; protein concentration not given here; high values mean tight binding.
Molecule B1 registered a binding signal of 1.29 enrichment R.
As to B2, the binding signal worked out at 0.721 enrichment R.
For B3, the binding signal is 1.77 enrichment R.
In the case of B4, the binding signal was found to be 1.37 enrichment R.
The molecule B5 returned a binding signal of 0.713 enrichment R.
Turning to B6, the binding signal was 0.297 enrichment R.
For B7 the value was 1.1 enrichment R.
As for B8, the figure is 1.13 enrichment R; as for B9, 1.36 enrichment R; as for B10, 0.741 enrichment R.
As for B11, the figure is 0.45 enrichment R; as for B12, 1.11 enrichment R; as for B13, 1.26 enrichment R.
Consider B14, for which the binding signal stood at 1.48 enrichment R.

The record behind these values is PMC12136788.
